# Results as given in paper PMC4336329 (PLoS ONE, 2015).
# Out of some 310,000 compounds screened, about 2,200 (0.71%) showed an effect of 50% or more. The effect is printed as a negative number. Some of the results follow.
# Target: human ether-à-go-go-related gene (hERG) potassium channel (human, UniProt Q12809)
# Assay: primary screen, population patch clamp on CHO cells stably expressing hERG
# Chain of human ether-à-go-go-related gene (hERG) potassium channel (Q12809 whole entry, looked up): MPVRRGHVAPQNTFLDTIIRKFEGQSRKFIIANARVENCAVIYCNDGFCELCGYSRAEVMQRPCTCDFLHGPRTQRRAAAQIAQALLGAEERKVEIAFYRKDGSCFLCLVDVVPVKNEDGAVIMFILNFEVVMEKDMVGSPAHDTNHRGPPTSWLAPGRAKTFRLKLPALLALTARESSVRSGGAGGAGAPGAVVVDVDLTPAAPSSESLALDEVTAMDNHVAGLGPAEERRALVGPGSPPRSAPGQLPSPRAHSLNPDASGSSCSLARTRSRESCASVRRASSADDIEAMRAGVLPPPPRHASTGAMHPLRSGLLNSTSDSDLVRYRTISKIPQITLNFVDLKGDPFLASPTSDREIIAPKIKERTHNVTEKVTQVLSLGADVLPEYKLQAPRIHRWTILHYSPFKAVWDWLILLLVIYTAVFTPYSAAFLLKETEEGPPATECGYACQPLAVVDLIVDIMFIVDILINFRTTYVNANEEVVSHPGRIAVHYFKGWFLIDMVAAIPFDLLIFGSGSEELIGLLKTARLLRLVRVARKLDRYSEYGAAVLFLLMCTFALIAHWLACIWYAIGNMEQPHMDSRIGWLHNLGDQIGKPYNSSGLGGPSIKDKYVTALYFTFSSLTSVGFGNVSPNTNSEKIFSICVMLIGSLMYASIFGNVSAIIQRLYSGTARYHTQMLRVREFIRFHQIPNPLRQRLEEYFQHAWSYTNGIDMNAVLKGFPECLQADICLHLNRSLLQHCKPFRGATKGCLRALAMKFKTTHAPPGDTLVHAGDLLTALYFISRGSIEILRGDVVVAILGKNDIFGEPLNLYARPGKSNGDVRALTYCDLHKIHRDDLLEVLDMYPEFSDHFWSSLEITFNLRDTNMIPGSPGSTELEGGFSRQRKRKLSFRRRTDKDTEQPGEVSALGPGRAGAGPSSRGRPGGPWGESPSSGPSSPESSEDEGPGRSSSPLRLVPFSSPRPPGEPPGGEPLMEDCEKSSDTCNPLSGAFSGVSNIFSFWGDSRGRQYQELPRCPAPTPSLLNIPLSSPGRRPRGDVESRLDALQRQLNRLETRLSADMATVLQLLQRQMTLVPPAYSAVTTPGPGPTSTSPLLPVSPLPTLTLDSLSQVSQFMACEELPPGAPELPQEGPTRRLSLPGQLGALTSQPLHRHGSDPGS
row,SMILES,"hERG current change (%, negative = inhibition) at 1uM [%]"
1,CN1CCN(C(=O)c2cccc(S(=O)(=O)N3CCCCC3)c2)CC1,-0.128
2,CCCCCCCCC(=O)N1CCN(c2cc3c(cc2F)c(=O)c(C(=O)O)cn3CC)CC1,-15.3
3,Cc1ccc(C(=O)Nc2ccc(S(=O)(=O)N3CCc4ccccc43)cc2)o1,0.408
4,O=C(CN(c1cc(Cl)ccc1Cl)S(=O)(=O)c1ccccc1)N1CCOCC1,8.35
5,Cc1cc(C(=O)N2CCC3(CC2)OCCO3)cs1,-0.0188
6,CC(=O)Nc1ccc(CN2CCN(CCc3ccccc3)C(CCO)C2)cc1 (centres unmarked),5.38
7,COc1ccccc1NC(=O)c1cccc2c(Br)cccc12,7.18
8,C/C(=C\c1cccc(Cl)c1)C(=O)c1c(C)cc(C)[nH]c1=O,12.2
9,CCCCCCC(=O)Nc1nc(C)c(-c2csc(Nc3ccccc3OC)n2)s1,14.7
10,COC(=O)C1=C(C)N(CCC2=CCCCC2)C(=O)C1,11
11,CCC1(C)Cc2c(sc3nnn(CC(=O)Nc4ccc(C)cc4)c(=O)c23)CO1 (centres unmarked),18
12,CCN1CCC(NC(=O)Nc2ccccc2C(=O)OC)CC1,6.74
13,Cc1nn(Cc2ccccc2)c(Cl)c1C(=O)OCC(=O)NC(=O)NC12CC3CC(CC(C3)C1)C2,12.4
14,O=C(COc1nsnc1N1CCOCC1)Nc1ccc(Br)cc1,6.78
15,O=P(NS(=O)(=O)c1ccc(Cl)cc1)(Oc1ccccc1)Oc1ccccc1,0.444
16,COc1ccccc1C(=O)Nc1nnc(S(=O)(=O)N2CCCCC2)s1,14.7
17,Cl.N=c1n(CCO)c2ccccc2n1Cc1ccc(Cl)cc1,-14.6
18,CN(CC(=O)Nc1ccc(Cl)c(Cl)c1)C(=O)C1CCCC1,5.9
19,O=C(Nc1cc(Cl)cc(Cl)c1)C1CC(=O)N(C2CCCC2)C1 (centres unmarked),-1.6
20,Cn1c(CC(=O)Nc2ccccc2)nnc1SCC(=O)c1ccccc1,12.7
21,CCn1c(C)nc2cc(OC)ccc21,10.5
22,COc1cc(NC2c3ccccc3C(=O)N2c2cc(C)ccn2)cc(OC)c1OC (centres unmarked),13.1
23,CCN(CC)S(=O)(=O)c1cc(NC(=O)c2n[nH]c(=O)c3ccccc23)ccc1C,6.54

row,SMILES,"hERG current change (%, negative = inhibition) at 1uM [%]"
1,COc1ccc(NC(=O)c2cc(-c3ccncc3)nc3ccc(Br)cc23)cc1OC,-0.401
2,CC(=O)Nc1ccc(-n2c(C)nc(=O)c(-c3ccccc3)c2C)cc1,16.9
3,CCOC(=O)c1ccc(OCCOc2ccccc2C)cc1,11.5
4,CCCN1CNC(=S)N(c2cccc(C)c2)C1,14.5
5,Cc1oc(-c2ccoc2)nc1CN(Cc1ccccc1)CC1CC1,5.28
6,CCc1ccc(Nc2nnc(SCC(=O)N(C)C3CCS(=O)(=O)C3)s2)cc1 (centres unmarked),-8.13
7,NS(=O)(=O)c1ccc(NC(=O)c2ccc3c(c2)OCO3)cc1,15.8
8,CCOP(=S)(OCC)SCCSCC,12
9,Cc1ccc2c(Cl)c(C)c(N3CCCCC3)nc2n1,1.91
10,N#Cc1cccc(NC(=O)CNc2cccc(S(=O)(=O)N3CCCCC3)c2)c1,6.62
11,O=C(COC(=O)c1ccccc1F)NNC(=O)c1ccccc1,15.5
12,CCC1Nc2ncnc(N3CCN(c4ccccc4)CC3)c2N(Cc2ccc(Cl)cc2)C1=O.O=C(O)C(F)(F)F (centres unmarked),11.1
13,Cc1cc(C)n(-c2ccc(NC(=O)C3CCCCN3C(=O)c3cc(C)oc3C)cc2)n1 (centres unmarked),4.95
14,Cc1cccc(N2CCN(C(=O)CCC(=O)N3CCOc4ccc(Cl)cc43)CC2C)c1 (centres unmarked),3.68
15,CC(C)[C@H](NC(=O)c1ccco1)C(=O)OCC(=O)N1CC(=O)Nc2ccccc21,4.97
16,CC1CN(C(=O)c2ccccc2)c2ccccc2NC1=O (centres unmarked),7.07
17,CC(=O)C(CC(=O)N1CCCc2ccccc21)C(=O)Nc1ccc(F)cc1 (centres unmarked),10.5
18,CC(C)(C)c1ccc(C(=O)C=[N+]=[N-])cc1,-11.8
19,O=C(Nc1ccc(CN2CCCCC2)cc1)Nc1ccccc1Cl,-4.06
20,O=S(=O)(c1ccc(Br)s1)N1CCNCC1,0.813
21,Cc1ccc(NS(=O)(=O)c2ccc(C)c(C(=O)N3CCN(C)CC3)c2)cc1.Cl,-0.66
22,Cc1ccccc1NC(=O)N1CCN(C(=O)c2ccco2)CC1,9.32
23,Cc1ccc(-n2nc3c(c2NC(=O)C(C)(C)C)CSC3)c(C)c1,13.3

row,SMILES,"hERG current change (%, negative = inhibition) at 1uM [%]"
1,O=C(CCN1C(=O)c2cccc3cccc(c23)C1=O)NCc1ccco1,0.727
2,COC(CNC(=O)c1ccc(CS(=O)(=O)c2c(Cl)cccc2Cl)o1)OC,20.4
3,Cc1c(NC(=O)c2ccccc2)cccc1[N+](=O)[O-],7.72
4,Br.N=C(N)SCc1cn2ccccc2n1,-1.37
5,COc1nc(N(C)C)nc(N2CC(=O)N(CCNS(=O)(=O)c3ccc(C)cc3)C2=N)n1,10.1
6,Cc1cccc(OCCCC(=O)O)c1C,10.9
7,O=C1CCN(Cc2cccnc2)CCN1[C@H](CO)c1ccccc1,13.2
8,CCOc1ccc(NC(=O)C2CCN(c3nnnn3-c3ccccc3)CC2)cc1,-8.01
9,COC(=O)CSc1nnc(CNC(=O)c2ccccc2F)n1-c1ccc(F)cc1,9.7
10,Cc1ccc(CNC(=O)c2c(-c3ccccc3)noc2C)cc1,19.7
11,C=CCOc1nc2c(c(=O)n(C)c(=O)n2C)n1C,2.43
12,O=C(NNC(=O)c1ccc(F)cc1)C(=O)N1CCCCC1,-4.55
13,O=C(CSc1nncn1-c1ccccc1)Nc1cc(Cl)cc(Cl)c1,5.88
14,O=C(Nc1ccc(OCC(=O)N2CCOCC2)cc1)Nc1cccc2ccccc12,10.7
15,Cc1cc(=O)oc2c(CN3CCC(C)CC3)c(O)c(Cl)cc12,8.01
16,OC(CNCCc1ccc(C(F)(F)F)cc1)COc1cccc2ccccc12 (centres unmarked),-2.51
17,CCOC(=O)CC(NC(=O)c1ccccc1F)c1ccc(C)cc1 (centres unmarked),0.886
18,N#Cc1ccc(C(=O)OCC(=O)NC2CCCC2)cc1,11.7
19,COc1ccc(NC(=O)c2cc(S(=O)(=O)N3CCCCC3)ccc2N2CCCCC2)cn1,7.51
20,COc1ccc(C(=O)Oc2ccc(/C=N/NC(=O)Cc3ccc([N+](=O)[O-])cc3)cc2)cc1,11
21,O=C(OCc1cc2ccccc2[nH]c1=O)C1CCCO1 (centres unmarked),12
22,c1ccc(-c2cn(-c3ccccc3)c3ncnc(N4CCCCC4)c23)cc1,9.67
23,Cc1ccc(CNC(=O)c2ccc(N3CCC4(CC3)CC(c3cccc(Br)c3)=NO4)c(N)c2)cc1,16.2

row,SMILES,"hERG current change (%, negative = inhibition) at 1uM [%]"
1,CC1(C)C2CC[C@]3(C)C(CC=C4[C@@H]5C[C@@](C)(CO)CC[C@]5(C(=O)O)CC[C@]43C)[C@@]2(C)CC[C@@H]1O (some centres unmarked),10
2,CC1(C)Cc2c(sc3nc[nH]c(=O)c23)CO1,12.1
3,COc1ccc(OC)c(CCNC(=O)CCn2ccc3cc(S(=O)(=O)N4CCCC4)ccc32)c1,8.27
4,Cc1ccc2nc(N(CCN(C)C)C(=O)c3ccc4c(c3)OCCO4)sc2c1.Cl,-14.1
5,COc1ccccc1NC(=O)NCCN1C(=O)C2C3C=CC(C3)C2C1=O (centres unmarked),10.3
6,COc1ccc(-c2cc(-c3c(O)c(OC)c4occc4c3OC)[nH]n2)cc1OC,-0.582
7,COc1ccc2nc(NC(=O)c3ccc([N+](=O)[O-])o3)sc2c1,14.3
8,CN(CC(=O)N1CCN(C2CCCCC2)CC1)S(=O)(=O)c1cccc2nsnc12,7.99
9,COc1cccc(C2C(C#N)=C(N)Oc3cc(C)[nH]c(=O)c32)c1OC (centres unmarked),-2.73
10,COc1ccc(C(=O)CSc2ccccc2C(=O)O)cc1,11.6
11,CCN(CC(=O)Nc1cc(Cl)ccc1C)C(=O)c1ccc(N2CCCC2=O)cc1,18.4
12,Cn1c(C(=O)N/N=C/c2ccccc2)cc2ccccc21,12.1
13,CCOC(=O)CSc1nc2cccnc2n1-c1ccc(F)cc1,9.18
14,CCOc1ccccc1N1CCN(C(=O)CSc2ccc3c(c2)OCCO3)CC1,-1.92
15,COc1cc(C(=O)NCC(=O)Nc2ccc(F)c(F)c2)ccc1OCC(=O)N1CCOCC1,32.1
16,NS(=O)(=O)c1ccc(CCNC(=O)CCS(=O)(=O)c2ccc(Br)cc2)cc1,16.5
17,Cc1ccc2c(Cl)c(C(=O)Nc3ccc4c(c3)OCO4)sc2c1,14.5
18,CCN(CC(=O)NCCCN1CCOCC1)S(=O)(=O)c1ccc(Cl)cc1,1.72
19,Cc1cc(C)n(-c2nc3ccccc3nc2N2CCCC2)n1,1.02
20,COc1cc(OC)nc(NC(=O)NS(=O)(=O)c2ccccc2Cl)n1,12.1
